Measurements reported in PubChem BioAssay AID445 (National Center for Advancing Translational Sciences (NCATS), 2006).
The whole screen tested about 110,000 compounds, of which about 40 (0.04%) were called active. Inconclusive means that the source gave no clear call. Such entries were picked first, then a sample of the others. The call rests on the fitted dose curve; in most records, active means well fitted curve in the direction sought with a large enough effect in the signal ratio (not every such curve was filed as active); inconclusive means small, poorly fitted or top-dose-only effect, or a change in a side signal; inactive means flat fitted curve, though single readings scatter; the % refers to the signal ratio. Potencies of inconclusive entries are doubtful fits and often do not repeat.

assay: IkB Signaling; settings: ABC-DLBCL IkBa-CBG/CBR dual luciferase ratio (green luciferase fused to IkBa over red control in OCI-Ly3 lymphoma cells), 4 h; IkBa stabilization activation: at 57.1 µM (top of the series), scaled: untreated 0%, proteasome inhibitor 100% unless noted;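 on IkBa stabilization activation: 0% = basal untreated cells and 100% = reference inhibitor full response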
Outline: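 In this assay, an IκBα–CBG68 fusion accumulates when IKK-driven degradation is blocked; native CBR normalizes for cell number. OCI-Ly3 cells were treated 4 h with compound and doxycycline, then green and red light read after Chroma-Glo addition.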
Potency means the concentration at half of the fitted maximal effect.

SMILES | IkBa stabilization activation | Potency
CCC(c1nnnn1C(C)(C)C)N1CCN(c2cc(Cl)ccc2C)CC1 (stereo not drawn) | inconclusive: 3.47% [signal inhibitor] | –
Cc1cc(C)c2c(CC(=O)N(Cc3ccccc3)C3CCS(=O)(=O)C3)coc2c1 (stereo not drawn) | inconclusive: 0.503% [signal inhibitor] | –
N#C/C(=C1\CCCN1)c1ccc2ccccc2n1 | inactive | –
c1ccc(Cn2c(-c3cccs3)nc3nc4ccccc4nc32)cc1 | inactive | –
CCC(=O)N1CCc2cc(Br)cc(S(=O)(=O)N3CCCC(C(=O)N(C)c4ccc(Br)cc4)C3)c21 (stereo not drawn) | inconclusive: 7.54% [signal inhibitor] | –
COc1ccc(C(=O)NCCn2cc(SCC(=O)Nc3cc(C)on3)c3ccccc32)cc1OC | inconclusive: -0.892% [signal inhibitor] | –
COc1ccccc1CNC(=O)c1ccc(-c2nc(CN3CCc4ccccc43)c(C)o2)cc1 | inconclusive: 2.49% [signal inhibitor] | –
CCCCN(C(=O)Cn1nnc2ccccc21)C(C(=O)NCc1ccco1)c1ccncc1 (stereo not drawn) | inconclusive: 4.58% [signal inhibitor] | –
CCc1ccc(NC(=O)C(=O)NCCc2csc(-c3ccc(C(F)(F)F)cc3)n2)cc1 | inconclusive: 12.1% [signal inhibitor] | –
COc1cccc(C(=O)N2c3cc(C)ccc3C(C)(c3ccccc3)CC2(C)C)c1 (stereo not drawn) | inconclusive: 5.93% [signal inhibitor] | –
Cn1cccc1C(=O)NC(=O)COC(=O)c1ccccc1Sc1ccccc1C#N | – | inconclusive: 20 µM [signal inhibitor, partial curve]
Cc1ccc(O)c(NC(=O)c2cccc(NC(=O)c3ccco3)c2)c1 | inconclusive: 3.16% [signal inhibitor] | –
Cn1c(-c2ccc(Br)o2)nc2cc(Br)ccc21 | inactive | –
Cc1cccc(C)c1Nc1sc(C(=O)c2ccccc2)c(N)c1C(=O)Nc1ccc(F)cc1 | inconclusive: -0.83% [signal inhibitor] | –
CCOC(=O)c1ccc(N2C(=O)c3n[nH]c(-c4cccs4)c3C2c2ccc(C(C)(C)C)cc2)cc1 (stereo not drawn) | inconclusive: 5.27% [signal inhibitor] | –
O=C(Nc1nc2n(n1)C(c1ccccc1)C=C(c1ccccc1)N2)c1ccc(Cl)c([N+](=O)[O-])c1 (stereo not drawn) | inconclusive: -0.727% [signal inhibitor] | –
CCc1cccc(NC(=O)Cn2nc(-c3ccc(OC)cc3)ccc2=O)c1 | inconclusive: 0.0422% [signal inhibitor] | –
CCOc1ccccc1NC(=O)Cn1c(=O)n(Cc2ccccc2)c(=O)c2c(C)c(C)sc21 | inconclusive: 7.65% [signal inhibitor] | –
Cc1ccc(NC(=O)c2c(C)oc3ccc(O)c(CN4CCCCCC4)c23)c(C)c1 | inconclusive: -1.15% [signal inhibitor] | –
CC(C)OCCCNC(=O)c1cc2c(-c3ccc(Cl)cc3)nn(C)c2s1 | inconclusive: -2.56% [signal inhibitor] | –
CCCCC(Sc1nc2cc3c(cc2c(=O)n1CCCC(=O)NCc1ccc(OC)cc1)OCO3)C(=O)OCC (stereo not drawn) | inactive | –
N#CCSc1nnc(COc2cccc3ccccc23)n1-c1ccccc1 | inconclusive: 0.516% [signal inhibitor] | –
CC(C)OCCCn1c(=S)[nH]c2ccc(N3CCOCC3)cc2c1=O | inconclusive: 6.25% [signal inhibitor] | –

SMILES | IkBa stabilization activation | Potency
CC(C(=O)NCc1ccccc1F)n1ccc2cc(S(=O)(=O)N3CCCC3)ccc21 (stereo not drawn) | inconclusive: 0.897% [signal inhibitor] | –
CCc1ccccc1NC(=O)Nc1cc(C(=O)NCc2ccc(C)cc2)ccc1N1CCCC1 | inactive | –
CCOc1ccccc1NC(=O)c1c(NC(=O)c2cccc(C)c2)sc2c1CCCC2 | inactive | –
CN1CCc2nc(SCCOc3ccccc3)c(C#N)cc2C1 | inconclusive: -5.15% [signal inhibitor] | –
CCCCCCCCN[C@@H](C)[C@H](O)c1ccc(SC(C)C)cc1 | inactive | –
COc1ccc(Br)cc1C(=O)Nc1nc2ccc(F)cc2s1 | – | inconclusive: 2 µM [signal inhibitor, full curve]
O=C(CNc1ccccc1)Nc1ccc(F)cc1 | – | inconclusive: 6.31 µM [signal inhibitor, partial curve]
Cc1cccc(-c2c3c(=O)n(C)c(=O)n(C)c3cn2-c2ccccc2O)c1 | inconclusive: 12.6% [signal inhibitor] | –
Cc1nn(Cc2ccccc2)c(C)c1NC(=O)c1cc(-c2cccs2)on1 | inconclusive: 9.04% [signal inhibitor] | –
CC1CN(C(=O)Nc2ccc(C(=O)NCc3cccc(F)c3)cc2)c2ccccc2S1 (stereo not drawn) | inconclusive: 2.96% [signal inhibitor] | –
O=C(Nc1ccc(C(F)(F)F)cc1)C1CCCN(c2cnccn2)C1 (stereo not drawn) | inconclusive: -0.188% [signal inhibitor] | –
COc1ccc(Nc2ncc3c(n2)CCN(Cc2cc(Br)cs2)C3)c(OC)c1 | inconclusive: 0.0484% [signal inhibitor] | –
Cn1cnc2cc(NC(=O)c3ccc(Cl)cc3)ccc21 | inconclusive: 17% [signal inhibitor] | –
Cn1nc(-c2ccc(C(=O)Nc3ccc(F)cc3)cc2)c2ccccc2c1=O | – | inconclusive: 39.8 µM [signal activator, single point]
COc1ccc2cc(-c3nc4ccc(C(=O)O)cc4[nH]3)c(=O)oc2c1 | – | inconclusive: 1 µM [signal inhibitor, partial curve]
C=Cc1ccc(Cn2nc(-c3ccc(C)c(S(=O)(=O)N(CC)CC)c3)ccc2=O)cc1 | inconclusive: 1.21% [signal inhibitor] | –
CCCS(=O)(=O)Nc1cc(-c2cn3cccc(C)c3n2)ccc1C | inactive | –
Brc1cc(Br)c2ncnc(N3CCCCC3)c2c1 | inconclusive: 1.85% [signal inhibitor] | –
COc1ccc(-c2cc(C(F)(F)F)c(C#N)c(SCC(=O)Nc3ccc(F)cc3)n2)cc1 | inconclusive: 4.86% [signal inhibitor] | –
COCCn1c(SCc2nc3ccccc3s2)nc2ccccc21 | inconclusive: 6.02% [signal inhibitor] | –
Cc1ccc(NCc2cccn2-c2nnc(N3CCC(C(=O)NC(C)C)CC3)s2)cc1 | inconclusive: -0.112% [signal inhibitor] | –
Cc1ccc(S(=O)(=O)N2CCCc3cc(NS(=O)(=O)c4ccc(F)c(C)c4)ccc32)cc1 | inconclusive: 7.15% [signal inhibitor] | –
CCCNC(=O)c1ccc2c(c1)ncn2-c1ccc(C)cc1C | inactive | –

SMILES | IkBa stabilization activation | Potency
COC(=O)c1cc2c(=O)n3ccccc3nc2n(C)c1=N | inactive | –
O=S(=O)(NCCOC12CC3CC(CC(C3)C1)C2)c1cccc2nsnc12 | inconclusive: 2.82% [signal inhibitor] | –
CCc1ccc(CNC(=O)c2ccc3c(c2)N=C(C)c2cc(C)ccc2S3)cc1 | inconclusive: 7.47% [signal inhibitor] | –
CN(C)CCNC(=O)c1ccc(-n2c(-c3ccccc3)cc3c2CCCC3)cc1 | inconclusive: 1.83% [signal inhibitor] | –
Cc1ccc(S(=O)(=O)C(CNC(=O)C(=O)NCc2ccc(Cl)cc2)c2cccs2)cc1 (stereo not drawn) | inconclusive: 0.0757% [signal inhibitor] | –
Cc1ccc(C(=O)NCCn2c(C)cc3ccccc32)cc1C | inconclusive: 0.0417% [signal inhibitor] | –
COc1ccc(Nc2cc(C)nc3nc(C)nn23)cc1Cl | inactive | –
N=c1c(C(=O)NCc2ccccc2)cc2c(=O)n3ccccc3nc2n1CCCN1CCOCC1 | inactive | –
Cc1c(NC(=O)c2ccc(OC(C)C)cc2)cccc1-c1nc2ncccc2o1 | inconclusive: 15.7% [signal inhibitor] | –
Cc1ccc(S(=O)(=O)c2cn(CC(=O)Nc3ccc(C)c(Cl)c3)c3ccc(C)cc3c2=O)cc1 | inconclusive: 2.35% [signal inhibitor] | –
COc1cccc(C(=O)NCCSc2c(-c3ccc(F)cc3)[nH]c3ccccc23)c1OC | inconclusive: 11.3% [signal inhibitor] | –
Cc1ccc(CNC(=O)C2CCCN(S(=O)(=O)c3ccc4c(c3)oc(=O)n4C)C2)cc1 (stereo not drawn) | inactive | –
CCc1nc2nc(C)cc(Nc3cccc(C(F)(F)F)c3)n2n1 | inactive | –
O=c1c2c(nc3nc(SCc4ccccc4)[nH]n13)CCC2 | – | inconclusive: 3.16 µM [signal inhibitor, full curve]
CCc1ccc(CNC(=O)CCSCc2ccccc2F)cc1 | inconclusive: 1.53% [signal inhibitor] | –
O=C(NC1CCCCC1)C(c1cccs1)N(Cc1cccs1)C(=O)c1ccco1 (stereo not drawn) | inactive | –
COc1ccc([C@@H]2CC(=O)c3c(O)cc(O[C@@H]4O[C@@H](CO[C@@H]5O[C@@H](C)[C@@H](O)[C@@H](O)[C@H]5O)[C@@H](O)[C@@H](O)[C@H]4O)cc3O2)cc1O | inactive: -0.625% [at 11.4 µM, scaled: untreated 0%, proteasome inhibitor 100%] | –
Cc1ccc(-n2nc(C)c3c2OC(N)=C(C#N)C3c2cccs2)cc1 (stereo not drawn) | – | inconclusive: 39.8 µM [signal inhibitor, single point]
COc1ccc(-c2nnc(-c3cccnc3)o2)cc1OC | inactive | –
Cc1cccc(NS(=O)(=O)c2ccc3[nH]c(=O)ccc3c2)c1C | inconclusive: 7.48% [signal inhibitor] | –
Cc1oc2ccc(O)c(CN(C)Cc3ccccc3)c2c1C(=O)Nc1cccc(C(F)(F)F)c1 | inconclusive: 2.52% [signal inhibitor] | –
COc1ccc(C(=O)c2cn(CC(=O)Nc3ccc4c(c3)OCCO4)c3ccc(OC)cc3c2=O)cc1 | inconclusive: 1.57% [signal inhibitor] | –
